Experimental data reported in PMC4336329 (PLoS ONE, 2015).
Screen size: about 310,000 compounds; about 14,000 (4.5%) showed an effect of 50% or more. Effects have a minus sign here. This is one part of the list.

Molecular target: human ether-à-go-go-related gene (hERG) potassium channel (human, UniProt Q12809)
Assay: primary screen, population patch clamp on CHO cells stably expressing hERG
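Note: peak tail current of the secondary pulse compared with the same well before compound.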

Chain of human ether-à-go-go-related gene (hERG) potassium channel (Q12809 whole entry, looked up): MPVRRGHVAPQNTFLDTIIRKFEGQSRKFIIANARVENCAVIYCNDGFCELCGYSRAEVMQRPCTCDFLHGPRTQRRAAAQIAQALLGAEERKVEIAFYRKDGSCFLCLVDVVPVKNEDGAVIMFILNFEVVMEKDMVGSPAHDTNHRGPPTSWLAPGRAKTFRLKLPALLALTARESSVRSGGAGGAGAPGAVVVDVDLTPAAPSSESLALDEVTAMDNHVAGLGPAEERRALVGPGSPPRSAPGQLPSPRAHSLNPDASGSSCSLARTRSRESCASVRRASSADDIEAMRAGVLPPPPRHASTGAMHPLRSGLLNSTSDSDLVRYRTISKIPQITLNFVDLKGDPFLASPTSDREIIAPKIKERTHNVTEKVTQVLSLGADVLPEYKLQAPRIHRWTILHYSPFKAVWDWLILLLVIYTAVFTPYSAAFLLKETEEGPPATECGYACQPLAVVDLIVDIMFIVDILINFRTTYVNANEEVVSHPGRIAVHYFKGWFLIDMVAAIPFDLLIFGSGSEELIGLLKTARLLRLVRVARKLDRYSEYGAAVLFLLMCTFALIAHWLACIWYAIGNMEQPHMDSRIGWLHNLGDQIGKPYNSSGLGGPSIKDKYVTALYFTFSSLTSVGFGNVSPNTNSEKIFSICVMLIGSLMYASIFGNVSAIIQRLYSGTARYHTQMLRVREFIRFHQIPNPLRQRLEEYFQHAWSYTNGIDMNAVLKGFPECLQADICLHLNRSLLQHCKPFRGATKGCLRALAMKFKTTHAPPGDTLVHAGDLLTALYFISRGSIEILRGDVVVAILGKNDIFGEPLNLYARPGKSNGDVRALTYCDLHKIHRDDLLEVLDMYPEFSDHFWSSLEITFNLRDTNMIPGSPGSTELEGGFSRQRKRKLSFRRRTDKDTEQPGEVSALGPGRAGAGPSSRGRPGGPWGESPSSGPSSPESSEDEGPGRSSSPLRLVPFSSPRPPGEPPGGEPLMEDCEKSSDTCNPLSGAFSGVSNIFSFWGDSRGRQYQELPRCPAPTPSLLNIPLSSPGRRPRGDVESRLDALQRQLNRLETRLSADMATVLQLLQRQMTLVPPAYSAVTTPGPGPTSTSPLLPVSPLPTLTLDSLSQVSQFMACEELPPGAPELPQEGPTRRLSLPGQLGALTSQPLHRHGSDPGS

How did the “hERG current change (%, negative = inhibition) at 10uM” value turn out when `CCCCCCN1CC(=O)N2[C@@H](Cc3c([nH]c4ccccc34)C2(C)C)C1=O` was run?
The value was 13.9%.

Which “hERG current change (%, negative = inhibition) at 10uM” value does the source give for `CCc1ccc(NC(=O)c2cc(-c3ccco3)on2)cc1` here?
The value was 3.72%.

For `CC1=NN(c2ccccc2C(=O)O)C(=O)C1N=Nc1ccccc1` (stereo not shown), which “hERG current change (%, negative = inhibition) at 10uM” value is on record?
The value was -3.05%.

With `CCCC(=O)OCCn1c(Br)nc2c1c(=O)[nH]c(=O)n2C` as the compound, how does the “hERG current change (%, negative = inhibition) at 10uM” value read?
Its value is 16.9%.

How did the “hERG current change (%, negative = inhibition) at 10uM” value turn out when `Cc1nc2c(C)cccc2c(SC(=N)N)c1CC=C(Cl)Cl.Cl` was run?
Its value is 6.48%.

With `O=C(CSCC(=O)Nc1cccc2ccccc12)Nc1cccc2ccccc12` as the compound, how does the “hERG current change (%, negative = inhibition) at 10uM” value read?
Its value is 20%.

`O=C(NNC(=S)NC(=O)c1sc2ccccc2c1Cl)c1ccc(Cl)cc1` was tested. Which “hERG current change (%, negative = inhibition) at 10uM” value did it give?
Its value is 18.3%.

`O=C(NCc1ccncc1)c1ccc(Br)o1` was tested. Which “hERG current change (%, negative = inhibition) at 10uM” value did it give?
Its value is 2.19%.

`O=C(Nc1nnc(C23CC4CC(CC(C4)C2)C3)s1)c1ccc(N2C(=O)CCC2=O)cc1` was tested. Which “hERG current change (%, negative = inhibition) at 10uM” value did it give?
Its value is 16.8%.

For `CCOc1cc(/C=N/Nc2nnc(C)n2N)ccc1OC(C)=O.Cl`, which “hERG current change (%, negative = inhibition) at 10uM” value is on record?
The value was 7.69%.

With `CC1CN=C(NC(C)c2ccccc2)S1` (stereo not shown) as the compound, how does the “hERG current change (%, negative = inhibition) at 10uM” value read?
The value was 2.35%.

With `O=[N+]([O-])c1ccc(N2CCCC2)cc1NC(c1ccccc1)c1ccccc1` as the compound, how does the “hERG current change (%, negative = inhibition) at 10uM” value read?
Its value is 8.49%.

For `CCc1[nH]nc2c1C1(CCN(C(=O)OCc3ccccc3)CC1)C(C#N)=C(N)O2`, which “hERG current change (%, negative = inhibition) at 10uM” value is on record?
The value was 13.3%.

Which “hERG current change (%, negative = inhibition) at 10uM” value does the source give for `CC1CCN(c2c(NCc3ccc(C(=O)NCC4COc5ccccc5O4)cc3)c(=O)c2=O)CC1` (stereo not shown) here?
The value was 3.59%.

How did the “hERG current change (%, negative = inhibition) at 10uM” value turn out when `c1ccc2c(c1)nc(-c1ccncc1)n2CCNc1nc(CN2CCCCC2)cs1` was run?
Its value is -4.11%.

`CCCCN(C)CCN1C(=O)C2C(C(=O)Nc3ccc(Cl)cc3)C3C=CC2(O3)C1C(=O)NC1CCCCC1` (stereo not shown) was tested. Which “hERG current change (%, negative = inhibition) at 10uM” value did it give?
The value was -70.2%.

`COc1cccc(C(=O)COC(=O)C(C)N2C(=O)c3ccccc3C2=O)c1` (stereo not shown) was tested. Which “hERG current change (%, negative = inhibition) at 10uM” value did it give?
The value was -7.25%.

How did the “hERG current change (%, negative = inhibition) at 10uM” value turn out when `O=C(Nc1nc2nccc(-c3ccccc3)n2n1)c1ccccc1` was run?
Its value is -7.16%.

With `CCOc1cccc(CN2CCC(n3nccc3NC(=O)c3ccc4c(c3)OCO4)CC2)c1` as the compound, how does the “hERG current change (%, negative = inhibition) at 10uM” value read?
Its value is -43.2%.

`CC(C)OCCCN1CN(S(=O)(=O)c2ccccc2)c2nc3ccccc3nc21` was tested. Which “hERG current change (%, negative = inhibition) at 10uM” value did it give?
The value was -4.27%.

For `COc1ccc(-c2ccc3nnc(SCC(=O)N4CCCC4)n3n2)cc1`, which “hERG current change (%, negative = inhibition) at 10uM” value is on record?
The value was -23%.

With `COc1ccc(NC(=O)CC2C(=O)OCC3CCCCN32)cc1Cl` (stereo not shown) as the compound, how does the “hERG current change (%, negative = inhibition) at 10uM” value read?
The value was -34%.

`CC(NC(=O)CCc1ccccc1)c1ccc2c(c1)OCO2` (stereo not shown) was tested. Which “hERG current change (%, negative = inhibition) at 10uM” value did it give?
Its value is 12.8%.

`COC(=O)c1ccccc1C(=O)N1CCCC(C(=O)c2ccc(OC)c(OC)c2)C1` (stereo not shown) was tested. Which “hERG current change (%, negative = inhibition) at 10uM” value did it give?
The value was 4.47%.

For `Cc1c(NC(=O)/C(C#N)=C\c2cccs2)c(=O)n(-c2ccccc2)n1C`, which “hERG current change (%, negative = inhibition) at 10uM” value is on record?
The value was 0.478%.

`CCCCN1C(=O)/C(=C/c2ccc(N(C)C)cc2)C(=O)N(Cc2ccco2)C1=O` was tested. Which “hERG current change (%, negative = inhibition) at 10uM” value did it give?
The value was 7.86%.

How did the “hERG current change (%, negative = inhibition) at 10uM” value turn out when `O=C(NNc1nc2ccccc2s1)Nc1ccccc1` was run?
The value was -2.48%.

`Cc1ccc(N2C(=O)c3cccc4c(N5CCN(C)CC5)ccc(c34)C2=O)c2cccnc12` was tested. Which “hERG current change (%, negative = inhibition) at 10uM” value did it give?
The value was 7.73%.

`COc1ccccc1/C=N/n1nnnc1N` was tested. Which “hERG current change (%, negative = inhibition) at 10uM” value did it give?
Its value is 12%.

With `Cc1cc(-c2cccc([N+](=O)[O-])c2)nc2ccccc12` as the compound, how does the “hERG current change (%, negative = inhibition) at 10uM” value read?
Its value is -1.46%.

With `CC(=O)c1cccc(NS(=O)(=O)N2CCOCC2)c1` as the compound, how does the “hERG current change (%, negative = inhibition) at 10uM” value read?
Its value is 4.56%.

`CN(C)C(CNC(=O)c1ccc(NS(=O)(=O)c2ccc3[nH]c(=O)[nH]c3c2)cc1)c1ccccc1` (stereo not shown) was tested. Which “hERG current change (%, negative = inhibition) at 10uM” value did it give?
Its value is 5.51%.

`CCCCOC(=O)C1Cc2ccccc2C(=O)O1` (stereo not shown) was tested. Which “hERG current change (%, negative = inhibition) at 10uM” value did it give?
The value was -13.4%.

For `O=C(NCc1ccco1)C(c1cccnc1)N(C(=O)Cn1nnc2ccccc21)c1ccc(F)cc1` (stereo not shown), which “hERG current change (%, negative = inhibition) at 10uM” value is on record?
The value was 10.7%.

Which “hERG current change (%, negative = inhibition) at 10uM” value does the source give for `CCOC(=O)N1CCC(NC(=O)CSCc2nc(-c3ccc(OCC)cc3)oc2C)CC1` here?
Its value is -46.3%.

With `COc1ccc(OCc2cc(C(=O)N3C[C@@H](C)O[C@@H](C)C3)no2)c(Cl)c1` as the compound, how does the “hERG current change (%, negative = inhibition) at 10uM” value read?
The value was -15%.

Which “hERG current change (%, negative = inhibition) at 10uM” value does the source give for `Cc1ccc(C2N(c3ccccc3)C(=O)N3CCCN23)cc1` (stereo not shown) here?
Its value is 2.63%.

For `Cc1ccc(N2C(=O)C(Cl)=C(NCCO)C2=O)c(C)c1`, which “hERG current change (%, negative = inhibition) at 10uM” value is on record?
The value was -2.41%.

With `O=C(O)c1ccc(/C=N/N2CCN(Cc3ccc(Cl)cc3)CC2)cc1` as the compound, how does the “hERG current change (%, negative = inhibition) at 10uM” value read?
The value was 19.5%.

Which “hERG current change (%, negative = inhibition) at 10uM” value does the source give for `Cc1ccc(NS(=O)(=O)N2CCOCC2)c(C)c1` here?
Its value is 10.2%.

`CC(C)Oc1ccc(CNC(=O)Cn2c(=O)oc3ccccc32)cc1` was tested. Which “hERG current change (%, negative = inhibition) at 10uM” value did it give?
The value was -7.93%.

With `Cc1oc2cc(O)ccc2c(=O)c1Oc1ccc2ccccc2c1` as the compound, how does the “hERG current change (%, negative = inhibition) at 10uM” value read?
The value was -49.6%.

How did the “hERG current change (%, negative = inhibition) at 10uM” value turn out when `O=C(CN1CCN(c2ccccc2O)CC1)Nc1ccccc1C(=O)NCCc1ccccc1` was run?
Its value is 46.2%.
